Test results reported in PubChem BioAssay AID624417 (National Center for Advancing Translational Sciences (NCATS), 2012).
Several values for one entry are separate records, joined by “and”; a condition that tells them apart may be missing. Identical values can stand only once. Screen size: about 410,000 compounds; about 6,400 (1.6%) were called active. Inconclusive results, whose numbers are uncertain, are shown with a selection of clear calls. The call rests on the fitted dose curve; in most records, active means well fitted inhibition curve with a large enough effect; inconclusive means small, poorly fitted or top-dose-only effect; inactive means no such curve, though single readings can be large or run the other way. Potencies of inconclusive entries are doubtful fits and often do not repeat.

The compounds below were run against Glucagon-like peptide 1 receptor (Homo sapiens) (UniProt P43220) (assay: qHTS of GLP-1 Receptor Inverse Agonists (Inhibition Mode)). Conditions: HEK293 GLP-1R CRE-luciferase, luminescence, 24 h, GLP-1R form is constitutively active; activity change, negative = inhibition: at 38.3 µM (top of the series) unless noted.
Procedure, shortened: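 GLP-1R inverse agonism mode: basal reporter luminescence in engineered HEK293 cells measured after one day of compound exposure at 37 deg C, with a 12 min room-temperature detection step.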
Further: nearly all actives have a fitted effect of over 55% in size.
On the % scale 0 is the no-effect control and ±100 the full control effect; potency means the concentration at half of the fitted maximal effect; tags describe the fitted curve by direction and shape.

UniProt P43220, sequence (P43220 whole entry, looked up): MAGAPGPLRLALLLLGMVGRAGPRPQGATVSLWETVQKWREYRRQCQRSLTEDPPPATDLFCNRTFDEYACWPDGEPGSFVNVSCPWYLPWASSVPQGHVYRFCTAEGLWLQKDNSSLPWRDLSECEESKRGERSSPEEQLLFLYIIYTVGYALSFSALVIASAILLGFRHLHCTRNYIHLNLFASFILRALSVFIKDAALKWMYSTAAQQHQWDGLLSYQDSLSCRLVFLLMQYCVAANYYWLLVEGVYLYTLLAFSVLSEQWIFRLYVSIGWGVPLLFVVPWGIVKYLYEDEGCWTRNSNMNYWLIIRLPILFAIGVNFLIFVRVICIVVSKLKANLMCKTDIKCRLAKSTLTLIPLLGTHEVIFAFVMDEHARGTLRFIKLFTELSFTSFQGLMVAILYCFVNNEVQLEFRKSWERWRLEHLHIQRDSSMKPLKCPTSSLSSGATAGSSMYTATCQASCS

Q: COC(=O)c1ccc2nc(NC(=O)C(C)(C)C)sc2c1 was tested. Which Potency did it give?
A: The Potency was inconclusive: 5.62 µM [inhibitor, partial curve, poor fit].

Q: How did the Potency turn out when O=C(c1cccc(Oc2c(Cl)cccc2[N+](=O)[O-])c1)N1CCCCC1 was run?
A: The Potency was inconclusive: 7.94 µM [inhibitor, partial curve, poor fit].

Q: How did the Potency turn out when COc1cccc(-c2nc(NC3CCCC3)c3ccccc3n2)c1O was run?
A: Its Potency is inconclusive: 12.6 µM [inhibitor, partial curve, poor fit].

Q: For O=C(Cn1c(=O)nc(-c2ccccc2)c2cc(Cl)ccc21)Nc1ccc(F)c(Cl)c1, which “activity change, negative = inhibition” value is on record?
A: Its value is inactive: 17.4%.

Q: With CC(O)(c1ccccc1)c1nc(/C=C/c2ccccc2)cs1 (configuration not stated) as the compound, how does the Potency read?
A: The Potency was inconclusive: 28.2 µM [inhibitor, single point].

Q: Which Potency does the source give for Cc1ccc(CNC(=O)CN2C(=O)CSc3ccc(S(=O)(=O)N4CCC(C)CC4)cc32)cc1 here?
A: Its Potency is inconclusive: 8.91 µM [inhibitor, partial curve, poor fit].

Q: COc1ccc(-c2coc3c(C(=O)NC4CCCCC4)cccc23)c(C)c1 was tested. Which Potency did it give?
A: The Potency was inconclusive: 10 µM [inhibitor, partial curve, poor fit].

Q: With Cc1ccn2c(NC(C)(C)C)c(-c3cccs3)nc2c1 as the compound, how does the Potency read?
A: Its Potency is active: 10 µM.

Q: C=C(C)c1cccc(C(C)(C)NC(=O)NNC(=O)c2ccccc2O)c1 was tested. Which Potency did it give?
A: The Potency was inconclusive: 31.6 µM [inhibitor, partial curve, poor fit].

Q: For COc1ccc(C2(C(=O)NCc3ccccc3Cl)CCOCC2)cc1OC, which “activity change, negative = inhibition” value is on record?
A: Its value is inactive: 12.7%.

Q: CCOc1ccc(NC(=O)c2ncoc2-c2ccco2)cc1 was tested. Which Potency did it give?
A: The Potency was inconclusive: 28.2 µM [inhibitor, single point].

Q: For CN(C)c1ccc(NC2=C(Cl)C(=O)c3ccccc3C2=O)cc1, which Potency is on record?
A: Its Potency is inconclusive: 28.2 µM [inhibitor, single point].

Q: For CC(C)(C)NCc1cc(Br)ccc1OC1CCCC1, which Potency is on record?
A: The Potency was inconclusive: 11.2 µM [inhibitor, partial curve, poor fit].

Q: Which Potency does the source give for COc1ccccc1Nc1ccc(Nc2ccccc2OC)nn1 here?
A: The Potency was inconclusive: 28.2 µM [inhibitor, single point].

Q: CCOC(=O)C1CCCN(C(=O)c2cc(Nc3ccc(OC)c(OC)c3)nc3ccccc23)C1 (configuration not stated) was tested. Which Potency did it give?
A: Its Potency is inconclusive: 25.1 µM [inhibitor, single point].

Q: How did the Potency turn out when CCC1(CC)NC(=S)NC1=S was run?
A: The Potency was inconclusive: 5.62 µM [inhibitor, full curve, poor fit].

Q: COc1ccccc1C(CNC(=O)COc1ccccc1C)N1CCCC1 (configuration not stated) was tested. Which Potency did it give?
A: The Potency was inconclusive: 10 µM [inhibitor, partial curve, poor fit].

Q: For O=C(Nc1ccccc1-c1nc2ccccc2[nH]c1=O)c1cccs1, which “activity change, negative = inhibition” value is on record?
A: Its value is inactive: 42.6%.

Q: For CCOC(=O)C1=NNC(C(=O)c2ccc(Cl)cc2)C1c1ccccc1 (configuration not stated), which Potency is on record?
A: Its Potency is inconclusive: 10 µM [inhibitor, partial curve, poor fit].

Q: Cc1c(NN=C(C#N)C#N)c(=O)n(-c2ccccc2)n1C was tested. Which Potency did it give?
A: Its Potency is inconclusive: 1 µM [inhibitor, full curve, poor fit].

Q: O=[N+]([O-])c1ccc(Oc2c(F)c(F)nc(N3CCCC3)c2F)cc1 was tested. Which Potency did it give?
A: Its Potency is inconclusive: 8.91 µM [inhibitor, partial curve, poor fit].

Q: Which Potency does the source give for O=C(NCc1ccc(Cl)cc1Cl)c1ccccn1 here?
A: The Potency was inconclusive: 28.2 µM [inhibitor, single point].

Q: For O=C(Nc1ccccc1)N1CCCN(c2ccc(C(F)(F)F)cc2[N+](=O)[O-])CC1, which Potency is on record?
A: Its Potency is active: 7.94 µM.

Q: How did the “activity change, negative = inhibition” value turn out when C#CCOCCOCCOCCNc1nc(N2CCN(C(=O)[C@H](CCC(=O)O)n3cc(CN)nn3)CC2)nc(N2CCN(C(=O)[C@H](CCC(=O)O)n3cc([C@@H](N)[C@H](C)CC)nn3)CC2)n1 was run?
A: Its value is inactive: -2.6%.

Q: Which Potency does the source give for CN(C)CC/C=C1/c2cc(F)ccc2CSc2ccc(F)cc21 here?
A: The Potency was inconclusive: 28.2 µM [inhibitor, single point].

Q: Which Potency does the source give for CCN(CC(=O)NC(=O)NC1CCCCC1)Cc1nc2ccccc2c(=O)[nH]1 here?
A: The Potency was inconclusive: 10 µM [inhibitor, partial curve, poor fit].

Q: For CCCCN1C(=O)C(O)(CC(=O)c2ccc(C(C)(C)C)cc2)c2ccccc21 (configuration not stated), which Potency is on record?
A: Its Potency is inconclusive: 11.2 µM [inhibitor, partial curve, poor fit].

Q: CCCCOc1cc(C(=O)NCCN(CC)CC)c2ccccc2n1 was tested. Which Potency did it give?
A: Its Potency is inconclusive: 11.2 µM [inhibitor, single point] and inconclusive: 14.1 µM [inhibitor, single point].

Q: Which “activity change, negative = inhibition” value does the source give for C[C@H](CO)N1C[C@H](C)[C@H](CN(C)Cc2cncnc2)Oc2cc(Br)ccc2S1(=O)=O here?
A: The value was inactive: 21.2%.

Q: For Cc1ccc(-c2csc(N3CCC[C@@H]3C(=O)NCCn3c(-c4ccncc4)nc4ccccc43)n2)cc1, which Potency is on record?
A: Its Potency is active: 12.6 µM.

Q: Which Potency does the source give for Cc1ccc(S(=O)(=O)NCCNc2ccc([N+](=O)[O-])cc2)cc1 here?
A: The Potency was inconclusive: 12.6 µM [inhibitor, single point].

Q: Which Potency does the source give for CCOc1ccc(S(=O)(=O)N2CCC(C(=O)NCC(=O)Nc3cccc(Cl)c3C)CC2)cc1 here?
A: Its Potency is inconclusive: 28.2 µM [inhibitor, single point].

Q: With CCC1(CC)Cc2ccccc2-c2nc(CN(C)C)[nH]c(=O)c21 as the compound, how does the Potency read?
A: The Potency was inconclusive: 20 µM [inhibitor, single point].

Q: Which Potency does the source give for CCOC(=O)C1=CCN(S(=O)(=O)c2ccccc2F)C1c1cccc(Cl)c1 (configuration not stated) here?
A: Its Potency is inconclusive: 11.2 µM [inhibitor, partial curve, poor fit].

Q: With CCN(Cc1nc2cc(Cl)ccc2c(=O)[nH]1)C(=O)COc1ccccc1Cc1ccccc1 as the compound, how does the Potency read?
A: The Potency was inconclusive: 10 µM [inhibitor, partial curve, poor fit].

Q: OCc1ccccc1SSc1ccccc1CO was tested. Which Potency did it give?
A: The Potency was inconclusive: 28.2 µM [inhibitor, single point].

Q: With CN(C(=O)COC(=O)C12CC3CC(CC(Cl)(C3)C1)C2)c1ccccc1 as the compound, how does the Potency read?
A: The Potency was inconclusive: 6.31 µM [inhibitor, partial curve, poor fit].

Q: With CN(CC(=O)Nc1ccccc1)CC(=O)Nc1ccccc1Cl as the compound, how does the Potency read?
A: Its Potency is inconclusive: 3.98 µM [inhibitor, partial curve, poor fit].

Q: CCCc1cc(=O)oc2cc(C)cc(OC(C)C(=O)NCCCn3ccnc3)c12 (configuration not stated) was tested. Which “activity change, negative = inhibition” value did it give?
A: The value was inactive: 19.1%.

Q: With COc1cccc(-c2nn(C)c3sc(C(=O)N4CCN(c5ccccn5)CC4)cc23)c1 as the compound, how does the Potency read?
A: Its Potency is inconclusive: 28.2 µM [inhibitor, single point].

Q: O=C(CNCc1ccc(Cl)cc1)Nc1cc(S(=O)(=O)N2CCCC2)ccc1Cl was tested. Which Potency did it give?
A: The Potency was inconclusive: 20 µM [inhibitor, single point].

Q: Which Potency does the source give for N=c1c2c(ncn1CCCO)Oc1c(ccc3ccccc13)C2c1ccccc1 (configuration not stated) here?
A: The Potency was inconclusive: 11.2 µM [inhibitor, partial curve, poor fit].

Q: How did the “activity change, negative = inhibition” value turn out when COc1cccc(CNC(=O)C2CCN(S(=O)(=O)c3ccc4c(c3)CCCN4C(C)=O)CC2)c1 was run?
A: The value was inactive: 12.3%.

Q: With CSCCOC(=O)c1[nH]c2c(c1C)C(=O)CC(c1ccco1)C2 (configuration not stated) as the compound, how does the Potency read?
A: Its Potency is inconclusive: 1.12 µM [inhibitor, full curve, poor fit].

Q: For CC(=O)c1cccc(NS(=O)(=O)c2ccc(N/C=C\C(=O)c3ccc(F)cc3)cc2)c1, which Potency is on record?
A: Its Potency is inconclusive: 11.2 µM [inhibitor, partial curve].

Q: How did the “activity change, negative = inhibition” value turn out when Cc1ccc(-c2nnc(-c3ccccc3)o2)cc1 was run?
A: Its value is inactive: -0.42%.

Q: Which “activity change, negative = inhibition” value does the source give for Cc1cn([C@H]2C[C@H](O)[C@@H](CNCC3=Cc4cc(O)ccc4OC3)O2)c(=O)[nH]c1=O here?
A: Its value is inactive: 11.3%.

Q: With NNC(=O)Cc1cn(-c2ncc(C(F)(F)F)cc2Cl)c2ccccc12 as the compound, how does the Potency read?
A: Its Potency is inconclusive: 11.2 µM [inhibitor, single point].

Q: For [O-][n+]1c(/C=C/c2ccccc2)ccc2ccccc21, which Potency is on record?
A: Its Potency is inconclusive: 28.2 µM [inhibitor, single point].

Q: How did the “activity change, negative = inhibition” value turn out when Cc1ccc(-c2cc(C(=O)NCc3ccccc3Cl)c3ccccc3n2)cc1C was run?
A: Its value is inactive: 4.87%.

Q: Which “activity change, negative = inhibition” value does the source give for Cc1cc(=O)oc2cc(OCC(=O)NCc3cccnc3)ccc12 here?
A: The value was inactive: 22.3%.

Q: C=CC(=O)Nc1ccc(CN2C(=O)N(c3c(Cl)c(OC)cc(OC)c3Cl)Cc3cnc(NCCCCN(CC)CC)nc32)cc1 was tested. Which Potency did it give?
A: Its Potency is inconclusive: 28.2 µM [inhibitor, single point].

Q: COc1cc(C)c(NC(=O)C2CCN(S(=O)(=O)c3cccs3)CC2)cc1OC was tested. Which Potency did it give?
A: The Potency was inconclusive: 22.4 µM [inhibitor, single point].

Q: O=S(=O)(c1ccc(NC(=S)NCc2cccnc2)cc1)N1CCCCC1 was tested. Which Potency did it give?
A: Its Potency is inconclusive: 0.891 µM [inhibitor, full curve, poor fit].

Q: For O=C(Nc1ccccc1Cl)N1CCN(Cc2ccc3c(c2)OCO3)CC1, which Potency is on record?
A: Its Potency is inconclusive: 12.6 µM [inhibitor, partial curve, poor fit].

Q: With CCCn1nc(NS(=O)(=O)c2cccc3nonc23)c2cc3cc(C)ccc3nc21 as the compound, how does the “activity change, negative = inhibition” value read?
A: The value was inactive: 12.4%.

Q: COc1ccccc1N(CC(=O)Nc1ccc(Br)cc1F)S(=O)(=O)c1cccs1 was tested. Which Potency did it give?
A: The Potency was inconclusive: 6.31 µM [inhibitor, partial curve].

Q: How did the “activity change, negative = inhibition” value turn out when CCc1ccc(NC(=O)Cn2c(=O)n(CCCCC(=O)NCCc3ccc(Cl)cc3)c(=O)c3ccccc32)cc1 was run?
A: Its value is inactive: 10.2%.

Q: How did the Potency turn out when Cc1ccc(/C=C2\SC(=S)N(c3c(C)n(C)n(-c4ccccc4)c3=O)C2=O)cc1 was run?
A: The Potency was inconclusive: 10 µM [inhibitor, partial curve, poor fit].

Q: For Cc1ccccc1-c1nnn(CC(=O)Nc2sc3c(c2C#N)CCC(C(C)(C)C)C3)n1 (configuration not stated), which “activity change, negative = inhibition” value is on record?
A: The value was inactive: 1.72%.

Q: How did the Potency turn out when N#Cc1c(-c2ccccc2)nc(SCc2ccc(Cl)cc2)[nH]c1=O was run?
A: Its Potency is inconclusive: 7.08 µM [inhibitor, partial curve, poor fit].

Q: COc1ccc(S(=O)(=O)Nc2ccc3c(c2)C(=O)N([C@H](C)CO)C[C@H](C)[C@@H](CN(C)C(=O)Nc2ccc(F)cc2)OCCCC[C@H](C)O3)cc1 was tested. Which Potency did it give?
A: The Potency was inconclusive: 28.2 µM [inhibitor, single point].
